# PubChem BioAssay AID463173 (ICCB-Longwood Screening Facility, Harvard Medical School, 2010)
# Hit rate of the full screen: of about 52,000 compounds, about 1,700 (3.3%) were called active. No stated cut-off is given here; in the data, active means survival mostly below about 52% (no sharp cut-off); inactive means mostly above about 56%. The list shows a part of the results.
# Test system: Wild type
# Assay: S. aureus survival, RN4220 and DeltatarO strains – OD600, teichoic acid synthesis inhibitors, primary screen (AID 463173)
# Details: S. aureus RN4220 wild type/DeltatarO growth, OD600, 18 h, hits give low values, screened at 18.75 µg/mL (by protocol)
row,Structure (SMILES),survival
1,CC1CCC(NC(=O)c2ccc3c(c2)N(Cc2ccccc2F)C(=O)c2ccccc2S3=O)CC1 (centres undefined),inactive: 96%
2,CC1(C)OC(=O)C(=C2CCCCCN2)C(=O)O1,inactive: 83%
3,CCOc1ccc(CCNC(=O)Cn2ncn3c(cc4sc(C)cc43)c2=O)cc1OCC,inactive: 76%
4,Clc1ccc(-c2cn3ncsc3n2)cc1,inactive: 78%
5,O=C(NCc1ccccc1)C(=O)NCC(c1ccc2c(c1)OCO2)N1CCOCC1 (centres undefined),inactive: 79%
6,COc1ccc2c(c1)sc1ncc(C(=O)NCc3ccc(Cl)cc3)c(=O)n12,inactive: 73%
7,CCN1CCN(c2oc(/C=C/c3ccc(OC)c(OC)c3)nc2C#N)CC1,inactive: 80%
8,Cc1ccc(CN2CCSc3ccc(C(=O)N4CCN(c5ccc(Cl)cc5)CC4)cc32)cc1,inactive: 85%
9,COc1cccc(CNC(=O)C(NS(=O)(=O)c2cccs2)C(C)C)c1 (centres undefined),inactive: 94%
10,COc1cccc(CNC(=O)c2ccc3nc(N4CCCCC4)sc3c2)c1OC,inactive: 73%
11,Cc1ccc(C)c2[nH]c(=O)c(C3NC(=O)c4ccccc4N3)cc12 (centres undefined),inactive: 99%
12,O=c1c2cccnc2n(Cc2ccccc2F)c(=O)n1Cc1ccc(F)cc1,inactive: 95%
13,CCCCN1C(=O)c2[nH]nc(-c3ccccc3O)c2C1c1cc(Br)c(O)c(OC)c1 (centres undefined),active: 10%
14,Cc1ccc(-n2c(C)cc(/C=C3\SC(=O)NC3=O)c2C)cc1,inactive: 120%
15,COc1ccc(NC(=O)Cn2c3ncccc3c(=O)n2-c2ccc(C)c(C)c2)c(OC)c1,inactive: 136%
16,CCCCc1nn2c(=O)cc(COC(=O)c3ccc(NC(=O)c4ccccc4Cl)cc3)nc2s1,inactive: 82%
17,O=S(=O)(Nc1ccc2nc(-c3ccc(F)cc3)oc2c1)c1ccccc1,inactive: 33%
18,CCOCCCNC(=O)C(c1ccc(OC)cc1)N(Cc1ccc2c(c1)OCO2)C(=O)c1ccc(NC(C)=O)cc1 (centres undefined),inactive: 69%
19,Cc1ccc2[nH]c(=O)c3cc(C(=O)N(C)c4ccc(Br)cc4)sc3c2c1,inactive: 81%
20,Cc1nnc(NC(=O)CSc2nc3c([nH]c4ccccc43)c(=O)n2-c2ccc(Cl)cc2)s1,inactive: 75%
21,Cc1cc(C)cc(NC(=O)c2cc(S(=O)(=O)NCCC3=CCCCC3)ccc2F)c1,inactive: 80%
22,Cc1ccc(NC(=O)c2cc(S(=O)(=O)N3CCCCC3)c[nH]2)cc1N(C)C,inactive: 87%

row,Structure (SMILES),survival
1,CC(=O)Nc1cc(C(=O)NCc2ccccc2Cl)ccc1Sc1ccc(F)cc1,inactive: 67%
2,Cc1cccc(C(=O)Nc2ccc3oc(-c4cccc5c(Br)cccc45)nc3c2)c1,inactive: 79%
3,CCc1ccc(NC(=O)C2CCN(c3nc(-c4ccc(OC)cc4)no3)CC2)cc1,inactive: 66%
4,Cn1c(=O)[nH]c(=O)c2c1nc(N1CCCC1)n2CCSc1ncccn1,inactive: 113%
5,CCOc1ccc2nc(N3CCN(C(=O)c4ccc5c(c4)CCCC5)CC3)sc2c1,inactive: 65%
6,COc1ccc2c(c1)CC(C(=O)NCc1ccc(F)cc1)CO2 (centres undefined),inactive: 45%
7,Cc1cc(OCC(=O)Nc2ccc(C(=O)OC3CCCCC3)cc2)cc(C)c1Cl,inactive: 52%
8,COc1ccc(CCNCc2c(C(=O)O)c(C)n(Cc3c(F)cccc3Cl)c2C)cc1OC,inactive: 116%
9,Cc1ccc(-c2cc(-c3ccc4c(c3)NC(=O)CO4)nc3c2COc2ccccc2-3)cc1,inactive: 95%
10,COc1ccccc1CN1CCN(C(CC(C)C)c2nnnn2Cc2ccc(F)cc2)CC1 (centres undefined),inactive: 107%
11,Cc1ccc2c(c1)C(=O)OC(C(=O)Nc1ncc(Cc3ccccc3Cl)s1)C2 (centres undefined),inactive: 86%
12,CCOc1ccc2c(c1)c(=O)c(C(=O)c1ccccc1)cn2Cc1ccccc1,inactive: 75%
13,Cc1c(CCC(=O)NCCc2ccccc2)c(=O)oc2cc(O)ccc12,inactive: 87%
14,Cc1ccc(C(=O)Nc2c(C(=O)NC(C)(C)C)oc3ccccc23)cc1,active: 0%
15,COc1ccc2c(c1)c1c(c(=O)n(-c3ccc(F)c(Cl)c3)c(=O)n1Cc1cccc(C)c1)n2C,inactive: 71%
16,Cc1cc(C)c2c(CC(=O)Nc3ccc(F)cc3)coc2c1,inactive: 94%
17,Cc1ccc(-n2nc(C)c3nc(CCC(=O)Nc4cccc(C)c4C)c(=O)n(C)c32)cc1,inactive: 76%
18,CCCS(=O)(=O)c1nc(S(=O)(=O)c2ccc(C)cc2)c(N(CC)CC)s1,inactive: 125%
19,CCOC(=O)c1ccc(NC(=O)CSc2c(C(C)C)cnc3c2c(=O)n(C)c(=O)n3C)cc1,inactive: 136%
20,COc1ccc(CNC(=O)Cn2nc3c(cc2=O)CCCC3)cc1,inactive: 64%
21,Cc1cccc(N2C(=O)N(Cc3cc(=O)n4ccccc4n3)c3ccccc3S2(=O)=O)c1,inactive: 89%
22,CC(C)OC(=O)c1ccc2c(c1)no[n+]2[O-],inactive: 109%
